Results taken from the supplement of paper PMC4967469.

Assays:
Experiment in all cases: Viability of human cancer cell lines after 72 h of drug (GDSC screen)
Gemcitabine = compound: Nc1ccn([C@@H]2O[C@H](CO)[C@@H](O)C2(F)F)c(=O)n1 [Gemcitabine]; settings: top dose 1.024 µM
Procedure: (§1)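 Human cancer cell lines in 384-well plates, medium with 10% serum, drug for 72 h over a 256-fold dose range (nine 2-fold or five 4-fold steps up to the top dose). Adherent lines were fixed and stained with the nucleic acid dye Syto60, suspension lines read with resazurin; signal relative to control wells, capped at 0 and 100%. One two-parameter sigmoid per drug and line, fitted in a mixed model over all curves with the slope shared within a line.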

GNF-2 = compound: NC(=O)c1cccc(-c2cc(Nc3ccc(OC(F)(F)F)cc3)ncn2)c1 [GNF-2]; settings: top dose 1.28 µM; top dose inferred
Procedure: as §1

Nilotinib = compound: Cc1cn(-c2cc(NC(=O)c3ccc(C)c(Nc4nccc(-c5cccnc5)n4)c3)cc(C(F)(F)F)c2)cn1 [Nilotinib]; settings: top dose 2 µM
Procedure: as §1

LFM-A13 = compound: C/C(O)=C(\C#N)C(=O)Nc1cc(Br)ccc1Br [LFM-A13]; settings: top dose 16 µM; top dose inferred
Procedure: as §1

AUY922 = compound: CCNC(=O)c1noc(-c2cc(C(C)C)c(O)cc2O)c1-c1ccc(CN2CCOCC2)cc1 [AUY922]; settings: top dose 0.256 µM; top dose inferred
Procedure: as §1

Bicalutamide = compound: CC(O)(CS(=O)(=O)c1ccc(F)cc1)C(=O)Nc1ccc(C#N)c(C(F)(F)F)c1 [Bicalutamide]; settings: top dose inferred
Procedure: as §1

TW-37 = compound: CC(C)c1ccccc1Cc1cc(C(=O)Nc2ccc(S(=O)(=O)c3ccccc3C(C)(C)C)cc2)c(O)c(O)c1O [TW-37]; settings: top dose 5 µM
Procedure: as §1

MP470 = compound: S=C(NCc1ccc2c(c1)OCO2)N1CCN(c2ncnc3c2oc2ccccc23)CC1 [MP470]; settings: top dose 20 µM; top dose inferred
Procedure: as §1

KIN001-270 = compound: Cc1ccc(Nc2cc(-c3cccc(N4C(=O)c5ccccc5C4=O)c3)ncn2)cc1NS(C)(=O)=O [KIN001-270]; settings: top dose 20 µM; top dose inferred
Procedure: as §1

T0901317 = compound: O=S(=O)(c1ccccc1)N(CC(F)(F)F)c1ccc(C(O)(C(F)(F)F)C(F)(F)F)cc1 [T0901317]; settings: top dose 10.24 µM; top dose inferred
Procedure: as §1

[1] = top dose 1.024 µM, screen: GDSC drug entry 150
[2] = top dose 10 µM, screen: GDSC drug entry 1502

| Cell Line | AUC (Gemcitabine) | IC50 (Gemcitabine) | AUC (GNF-2) | IC50 (GNF-2) | AUC (Nilotinib) | IC50 (Nilotinib) | AUC (LFM-A13) | IC50 (LFM-A13) | AUC (AUY922) | IC50 (AUY922) | AUC (Bicalutamide; [1]) | IC50 (Bicalutamide; [1]) | AUC (Bicalutamide; [2]) | IC50 (Bicalutamide; [2]) | AUC (TW-37) | IC50 (TW-37) | AUC (MP470) | IC50 (MP470) | AUC (KIN001-270) | IC50 (KIN001-270) | AUC (T0901317) | IC50 (T0901317) |
| --- | --- | --- | --- | --- | --- | --- | --- | --- | --- | --- | --- | --- | --- | --- | --- | --- | --- | --- | --- | --- | --- | --- |
| CTV-1 (acute myeloid leukaemia, suspension) | 0.184 | 0.0095 µM | 0.992 | > 1.28 µM | 0.886 | 1.46 µM | 0.97 | > 16 µM | 0.545 | 0.0207 µM | 0.99 | > 1.02 µM | 0.986 | > 10 µM | 0.591 | 0.526 µM | 0.953 | > 20 µM | 0.932 | > 20 µM | 0.98 | > 10.2 µM |
| CW-2 (large intestine, adherent) | 0.973 | > 1.02 µM | 0.989 | > 1.28 µM | 0.986 | > 2 µM | 0.989 | > 16 µM | 0.989 | > 0.256 µM | 0.987 | > 1.02 µM | 0.988 | > 10 µM | 0.55 | 0.432 µM | 0.888 | > 20 µM | 0.986 | > 20 µM | 0.963 | > 10.2 µM |
| D-263MG (glioma, adherent) | 0.973 | > 1.02 µM | 0.983 | > 1.28 µM | 0.97 | > 2 µM | 0.911 | > 16 µM | 0.725 | 0.0813 µM | 0.982 | > 1.02 µM | 0.932 | > 10 µM | 0.513 | 0.341 µM | 0.954 | > 20 µM | 0.977 | > 20 µM | 0.974 | > 10.2 µM |
| D-283MED (medulloblastoma, adherent) | 0.405 | 0.0361 µM | 0.981 | > 1.28 µM | 0.991 | > 2 µM | 0.991 | > 16 µM | 0.808 | 0.118 µM | 0.991 | > 1.02 µM | 0.986 | > 10 µM | 0.458 | 0.242 µM | 0.981 | > 20 µM | 0.96 | > 20 µM | 0.976 | > 10.2 µM |
| D-502MG (glioma, adherent) | 0.978 | > 1.02 µM | 0.975 | > 1.28 µM | 0.976 | > 2 µM | 0.969 | > 16 µM | 0.892 | > 0.256 µM | 0.977 | > 1.02 µM | 0.947 | > 10 µM | 0.845 | > 5 µM | 0.969 | > 20 µM | 0.956 | > 20 µM | 0.974 | > 10.2 µM |
| DG-75 (Burkitt lymphoma, suspension) | 0.908 | > 1.02 µM | 0.987 | > 1.28 µM | 0.972 | > 2 µM | 0.983 | > 16 µM | 0.943 | > 0.256 µM | 0.986 | > 1.02 µM | 0.965 | > 10 µM | 0.511 | 0.335 µM | 0.941 | > 20 µM | 0.977 | > 20 µM | 0.949 | > 10.2 µM |

Lines with a small IC50 respond at low doses; a fit beyond the top or the lowest dose is shown as a bound at that dose. AUC, from the same fit, is the share of area under the viability curve across the 256-fold dose range; it is 1 without any effect and falls as sensitivity rises. For part of these data: An inferred top dose is not printed in the source and was worked back from the curve model. For part of these data: An entry number marks a drug with two screens in the source, which often give different values.
